Measured values taken from PubChem BioAssay AID1240 (Sanford-Burnham Center for Chemical Genomics, 2008).
About 800 (1.6%) of roughly 50,000 compounds showed an effect of 50% or more. This is one part of the list.

Molecular target: Bcl-2-like protein 10 (Homo sapiens) (UniProt Q9HD36)
Test: Phenotype converters, Bcl-B/TR3 peptide binding displacement, primary biochemical FP (AID 1240);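 further: 0% = Bcl-B with tracer peptide and DMSO and 100% = tracer peptide lacking Bcl-B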
Settings: GST-Bcl-B / FITC-TR3 peptide fluorescence polarization; stronger effect = higher value; compound at 3.75 mg/L

Chain of UniProt Q9HD36 (Q9HD36 whole entry, looked up): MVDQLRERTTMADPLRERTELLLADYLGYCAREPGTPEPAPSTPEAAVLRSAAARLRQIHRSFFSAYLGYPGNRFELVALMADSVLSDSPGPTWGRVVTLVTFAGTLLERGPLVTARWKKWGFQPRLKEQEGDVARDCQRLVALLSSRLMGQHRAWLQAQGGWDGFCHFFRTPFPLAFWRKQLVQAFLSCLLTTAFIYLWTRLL

SMILES | displacement
COC(=O)C1=C(C)N(CCc2ccc(OC)c(OC)c2)C(=O)C1 | 12.1%
CCOc1ccc(NS(=O)(=O)c2cc(-c3nnnn3C)ccc2OC)cc1 | 7.8%
O=C(CN(c1ccc(F)cc1)S(=O)(=O)c1ccccc1)N1CCOCC1 | -2.8%
CCOC(=O)/C(C#N)=C/c1ccc(N2CCN(CCN3C(=O)c4cccc5cccc(c45)C3=O)CC2)cc1 | -8.7%
Cc1ccc(-c2nc3cc(NC(=O)c4ccccc4I)ccc3o2)c(C)c1 | 4.5%
COc1ccc(/C=C2\NC(=S)N(c3ccccc3)C2=O)cc1OC | 41.7%
CCC(=O)Nc1sc2c(c1C(=O)Nc1ccc(OC)cc1)CCCCC2 | 8.5%
O=C(COc1ccc([N+](=O)[O-])cc1)Nc1cc(C(F)(F)F)cc(C(F)(F)F)c1 | -2.6%
CC(C)c1ccc(C=NCCCO)cc1 | -6.7%
CSc1nc(=O)n(C)c(C)c1C(C)=O | 17.9%
Cc1ccc(S(=O)(=O)N=C2C=C(Cl)C(=O)C(Br)=C2)cc1 | 19.3%
COc1ccccc1C(=O)Nc1ccc(F)c(Cl)c1 | 4.1%
Cc1ccc(Cl)cc1NC(=O)CSc1nnc(N)s1 | -13%
O=C(NCCCc1ccccc1)C(Sc1ccccc1)c1ccccc1 (centres undefined) | -24.9%
O=C(CC1(O)C(=O)Nc2ccccc21)c1ccco1 (centres undefined) | 13.7%
Cc1cc(Nc2ccccc2)n(C(=O)c2ccc([N+](=O)[O-])cc2)n1 | 10.8%
CCOc1ccccc1/C=C(/NC(=O)c1ccccc1)C(=O)N1CCCCC1 | 17.6%
COc1ccc(-c2cc(C(=O)N3CCN(Cc4ccccc4)CC3)c3ccccc3n2)cc1OC | -8.5%
NC1=NC2(CCCC2)N=C(Nc2ccc(F)cc2F)N1 | -4.1%
CCOc1ccc(-c2cnc(=S)[nH]c2N)cc1 | 5.2%
COC(=O)C(C)N(C(=O)c1ccc(C(=O)c2ccccc2)cc1)c1c(C)cccc1C (centres undefined) | 10.7%
COc1ccccc1N1CCN(/N=C\c2c(C)nn(-c3ccccc3)c2C)CC1 | 6.3%

SMILES | displacement
CCCC1=NN2C(=N)/C(=C/c3ccccc3C)C(=O)N=C2S1 | 32.9%
Cc1cccc(N2CCN(S(=O)(=O)c3ccccc3[N+](=O)[O-])CC2)c1C | -7.2%
O=C(O)CCCCCN1C(=O)C(O)=C(C(=O)/C=C/c2ccccc2)C1c1ccccc1[N+](=O)[O-] (centres undefined) | 9.2%
COc1ccc2c(c1)C(C)=CC(C)(C)N2C(=O)NC1CCCCC1 | -0.3%
COc1ccc(NC(=S)NC(NC(=O)Cc2ccccc2)C(Cl)(Cl)Cl)cc1OC (centres undefined) | 9.8%
COc1ccccc1N1C(=O)c2ccc(OC)c(OC)c2C1=O | -4.1%
C/C(=N\NC(=O)COc1ccccc1[N+](=O)[O-])c1ccc(Br)cc1 | 10.5%
O=C1c2ccccc2-c2c(NC3CCCCC3)c(=O)[nH]c3cccc1c23 | 150%
CCOC(=O)Cc1csc(NC(=O)c2ccc([N+](=O)[O-])o2)n1 | -4.1%
CC(C)Oc1ccc2c3c(c(=O)oc2c1)CCC3 | -0.7%
CC(C)c1ccccc1NC(=O)c1sc2ccccc2c1Cl | 0.9%
CC1=NNC(=O)C1CC(=O)N/N=C/c1ccc(Cl)cc1Cl (centres undefined) | 1.3%
CCOC(=O)c1c(NC(=O)C2C(C=C(Cl)Cl)C2(C)C)sc2c1CCCC2 (centres undefined) | 6.3%
CCc1sc(-c2c(C#N)c(N)nc3c2CCCC3)cc1Br | 0.7%
Cc1ccc(S(=O)(=O)N=Nc2c(O)[nH]c3ccccc23)cc1C | 11.7%
Cc1ccc(N2C(=O)NC(=O)/C(=C/c3cc(C)n(-c4ccccc4)c3C)C2=O)cc1 | 21.7%
CCCOC(=O)c1ccc(NC(=O)/C=C\C(=O)O)cc1 | 18.2%
C=CCNC(=O)c1cnn(-c2ccccc2)c1NC(=O)c1cccc(F)c1 | -5.7%
COc1cccc(/C=C2\C(=O)NC(=O)N(c3ccc(Br)c(C)c3)C2=O)c1OC | -10%
O=C(Nc1ccc(NC(=O)c2cccs2)cc1)c1ccccc1 | -0.6%
O=S(=O)(c1ccccc1)N1CCN(CCCc2ccccc2)CC1 | 0.3%
CC1=C(C(=O)N2CCOCC2)C(c2cccs2)NC(=O)N1 (centres undefined) | 1.8%

SMILES | displacement
O=C(Nc1ccccc1O)c1cccc2c(Br)cccc12 | 1.4%
O=Cc1ccc(-c2ccc(OC(F)(F)F)cc2)o1 | -7%
CCOC(=O)C1=C(C)N=c2s/c(=C\c3ccc4c(c3)OCO4)c(=O)n2C1c1ccc(C)cc1 (centres undefined) | -7.1%
CN1CCN(Cn2c(O)c(N=NC(=O)c3ccccc3)c3cc(Br)ccc32)CC1 | -6.3%
Cc1ccc(SCCNC(=O)CN(c2ccccc2C)S(C)(=O)=O)cc1 | 0.5%
Cc1ccccc1N1CCN(C(=S)c2ccc(OCc3ccccc3)cc2)CC1 | 18.1%
O=C(c1cccc2ccccc12)N1CCN(c2nc3ccc([N+](=O)[O-])cc3s2)CC1 | 28.9%
C=CCOc1ccc(/C=C2\SC(=S)N(CC(=O)O)C2=O)cc1OC | 10%
COC(=O)C1=C(C)NC2=C(C(=O)CC(c3cccs3)C2)C1c1ccsc1 (centres undefined) | 4.7%
COc1ccc(C(=O)N/C(=C/c2ccc(-c3ccc(Cl)cc3)o2)C(=O)N(C)C)cc1 | 8.9%
CS(=O)(=O)N1CCN(Cc2ccc([N+](=O)[O-])cc2)CC1 | 10.7%
O=S(=O)(c1ccc(Cl)cc1)N1CCN(Cc2cccc3ccccc23)CC1 | -4.6%
O=C(Nc1nc2ccc(Cl)cc2s1)C1CC1 | -9.6%
S=C(c1ccc(-c2cccc(Cl)c2Cl)o1)N1CCN(c2ccccc2)CC1 | -4%
O=C(Nc1ncc(S(=O)(=O)c2ccc([N+](=O)[O-])cc2)s1)c1ccccc1Cl | -0.6%
COc1ccc(NC(=O)Nc2ccc(Oc3ccccc3)cc2)cc1OC | -0.4%
COC(=O)C1=C(C)NC2=C(C(=O)CC(c3ccccc3)C2)C1c1ccc(O)c([N+](=O)[O-])c1 (centres undefined) | 11.6%
COc1ccc(OCCCCN2CCC(C)CC2)cc1 | -1.2%
O=C(OCCN1CCOCC1)c1ccc(Cl)cc1 | -3.3%
c1cncc(-c2noc(COc3ccc4ccccc4c3)n2)c1 | 0.6%
C=CCNC(=O)C1CC(=O)N(c2ccc(C)cc2)C1 (centres undefined) | -7.4%
Cc1cccc(N2CCN(C(=O)C(Cl)(Cl)Cl)CC2)c1C | 9.4%

SMILES | displacement
O=C(c1ccc(Cl)cc1Cl)N1CCN(c2ccccn2)CC1 | 2.2%
CN1CCc2c(sc3nc(=S)[nH]c(N)c23)C1 | 37.3%
C=C(Br)CSc1nc2ccccc2[nH]1 | 20.2%
O=C(/C=C/c1ccco1)N1CCN(c2ccccc2)CC1 | -3.2%
O=c1c2c(nc3cc(-c4cccc(Cl)c4)[nH]n13)CCCC2 | -4.2%
O=C(N/N=C\C=C\c1ccc2c(c1)OCO2)c1ccc(F)cc1 | -12.6%
COc1cc(C(O)c2nccn2C)ccc1OCc1ccccc1 (centres undefined) | 11%
COc1cc(/C=C/C(=O)c2c(-c3ccccc3)c3cc(Cl)ccc3[nH]c2=O)cc(OC)c1OC | 11.5%
Oc1ccccc1N=Cc1ccc(Br)cc1 | -1.9%
Cc1ccccc1NC(=O)C(=O)NCc1ccc(Cl)cc1 | 2.4%
Cc1ccc([N+](=O)[O-])cc1NC(=O)COc1ccc(Cl)cc1Cl | 3.8%
CCc1cc2c(C)cc(=O)oc2cc1OC(=O)c1ccccc1 | -3.3%
COc1ccc(OC)c(C2C(C(C)=O)=C(O)C(=O)N2CCN(C)C)c1 (centres undefined) | -10.4%
COc1c(Cl)cc(Cl)cc1/C=C1\SC(NC(C)=O)=NC1=O | 74.7%
Cc1ccc(Oc2nc3ccccc3n3cnnc23)cc1 | -8.2%
O=C(c1cccc(F)c1)N1CCN(C2CCCCC2)CC1 | -12%
Fc1cccc(-c2nnc(SCc3ccccc3Cl)n2-c2ccccc2)c1 | -10.7%
CC(C)(C)C1CCc2c(sc3ncn4c(=S)[nH]nc4c23)C1 (centres undefined) | -5.7%
CN1c2ccccc2N(C)C1(C)c1cccc2ccccc12 | 23.9%
CCN=C1SC(CC(=O)Nc2ccc(N3CCOCC3)cc2)C(=O)N1CC (centres undefined) | -2.3%
Cc1ccc(N2NC(=O)/C(=C/c3ccc(C)c([N+](=O)[O-])c3)C2=O)cc1Cl | 13.1%
O=S(=O)(CCc1ccccc1)/N=C/c1cc(Br)ccc1O | 4.5%

SMILES | displacement
Cc1ccc2c(c1)C(=Cc1nc3ccccc3c(=O)n1-c1ccccc1[N+](=O)[O-])C(=O)N2 | -15.3%
COc1ccc(N(CC(=O)NCc2ccccc2OC)S(=O)(=O)c2ccccc2)c(OC)c1 | -4.1%
CCc1c(O)nc(SCC(=O)N2CCOCC2)n(-c2ccccc2)c1=O | -4.1%
C(#CCn1c2ccccc2c2ccccc21)CN1CCOCC1 | 7.8%
Cc1ccc(N2C(=O)CC(N3CCN(c4ccccc4F)CC3)C2=O)cc1 (centres undefined) | 5.2%
O=C(CN(c1ccc(F)cc1)S(=O)(=O)c1ccccc1)Nc1ccccc1 | 0.5%
COc1ccccc1CC(=O)Nc1cccc(C)c1C | 2.7%
CCOC(=O)C1=C(C(=O)OCC)SC(=C2C(=S)C(C)(C)N(C(=O)CN3C(=O)CCC3=O)c3ccc(C)cc32)S1 | -0.7%
CCOc1cc(/C=C2/NC(=S)NC2=O)ccc1OCc1ccc(Cl)cc1 | 12.7%
O=C(c1ccc2c(c1)OCO2)N1CCN(CCN2C(=O)c3cccc4cccc(c34)C2=O)CC1 | -2.5%
O=C(COc1ccc2cc(Br)ccc2c1Br)NCc1ccccc1 | -0.9%
COc1ccc(CNC(=O)c2cccc(F)c2)cc1 | 9.6%
CCOC(=O)CSc1nc2sc3c(c2c(=O)n1-c1ccccc1)CCN(C)C3 | -7.2%
COC(=O)C1(C(=O)OC)C(C)C1(C(=O)OC)C(=O)OC | 18.4%
O=C(CCN1C(=O)/C(=C/c2ccccc2)SC1=S)Nc1cccc(Cl)c1 | 6%
CCOC(=O)c1c(NC(=O)C(Cc2ccccc2)N2C(=O)c3ccccc3C2=O)sc2c1CCCC2 (centres undefined) | 11.8%
CS(=O)(=O)N1CCN(C(=O)c2ccc(F)cc2)CC1 | 9.2%
Cc1ccc(/C=C2/NC(=S)NC2=O)c(C)c1 | 1%
COc1ccc(-c2nc3cc(NC(=S)NC(=O)c4ccc(Cl)cc4)ccc3o2)cc1OC | -8.5%
O=C(CCc1ccccc1)N1N=C(c2cccnc2)CC1(O)C(F)(F)F (centres undefined) | 4.1%
COCCNC(=O)c1nn2c(c1Cl)NC(c1ccc(Br)cc1)CC2C(F)(F)F (centres undefined) | 5.9%
